Here are results for 47 compounds from article PMC6664820, “Novel natural and synthetic inhibitors of solute carriers SGLT1 and SGLT2” (Pharmacology Research & Perspectives, 2019).

Out of some 1,900 compounds screened, about 40 (2%) showed an effect of 50% or more. The list shows a part of the results.

Sequence of human SGLT1 (hSGLT1) (P13866 whole entry, looked up): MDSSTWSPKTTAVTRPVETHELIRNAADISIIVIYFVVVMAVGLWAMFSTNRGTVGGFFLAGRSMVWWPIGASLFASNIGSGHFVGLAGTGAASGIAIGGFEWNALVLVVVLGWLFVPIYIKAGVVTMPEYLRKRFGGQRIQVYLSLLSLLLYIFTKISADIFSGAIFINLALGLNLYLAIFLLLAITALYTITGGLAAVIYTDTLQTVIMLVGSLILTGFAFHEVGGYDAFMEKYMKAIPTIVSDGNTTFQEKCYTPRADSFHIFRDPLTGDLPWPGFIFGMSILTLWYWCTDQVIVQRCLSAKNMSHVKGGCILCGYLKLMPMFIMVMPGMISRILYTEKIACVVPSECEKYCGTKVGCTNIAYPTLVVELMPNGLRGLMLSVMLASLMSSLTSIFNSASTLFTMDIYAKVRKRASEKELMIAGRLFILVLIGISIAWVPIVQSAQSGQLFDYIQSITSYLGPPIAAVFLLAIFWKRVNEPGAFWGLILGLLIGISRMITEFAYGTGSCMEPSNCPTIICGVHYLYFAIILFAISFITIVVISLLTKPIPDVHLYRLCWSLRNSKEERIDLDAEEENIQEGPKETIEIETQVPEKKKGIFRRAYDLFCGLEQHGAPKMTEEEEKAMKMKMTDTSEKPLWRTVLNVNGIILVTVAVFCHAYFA

In this experiment the target is human SGLT1 (hSGLT1) (human, UniProt P13866). In words: primary screen, percent of control activity; higher = less effect of the substance. Also noted: single well. The settings on record: 50 µM. Put shortly:
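Single-point screen at 50 µmol/L in CHO-hSGLT1 cells, with 160 µmol/L 1-NBD-glucose in glucose-free DMEM for 90 min at 37°C. Fluorescence from isopropanol extracts was calibrated, and CHO wild-type uptake was subtracted. Data are percent of uptake without compound.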
Take `O=C1C=C2C=C[C@@H]3C[C@@]2(O1)[C@H]1CCCCN31`: the “NORMALIZED SGLT1 ACTIVITY (%)” value was 105%.

Take `CC(=O)Nc1cc([As](=O)(O)O)ccc1O`: the “NORMALIZED SGLT1 ACTIVITY (%)” value is 104%.

As to `CS(=O)(=O)c1ccc(C2=C(c3ccccc3)C(=O)OC2)cc1`, the “NORMALIZED SGLT1 ACTIVITY (%)” value was determined as 173%.

For the compound `O=C(CCCN1CCC2(CC1)C(=O)NCN2c1ccccc1)c1ccc(F)cc1`, the “NORMALIZED SGLT1 ACTIVITY (%)” value stood at 86%.

As to `COc1ccc2c(c1)[C@@]1(C)CCC(=O)C[C@@H]1CC2`, the “NORMALIZED SGLT1 ACTIVITY (%)” value was 184%.

For `COc1ccc(C(=O)CC(=O)O)c2c1C=CC(C)(C)O2`, the “NORMALIZED SGLT1 ACTIVITY (%)” value is recorded as 115%.

Take `NC[C@@H]1CC[C@@H](N)[C@@H](O[C@H]2[C@H](O)[C@@H](O[C@H]3O[C@H](CO)[C@@H](O)[C@H](N)[C@H]3O)[C@H](N)C[C@@H]2N)O1.O=S(=O)(O)O`: the “NORMALIZED SGLT1 ACTIVITY (%)” value turned out to be 96%.

As for `CCN(CC)C(C)CN1c2ccccc2Sc2ccccc21.Cl` (centres unmarked), the “NORMALIZED SGLT1 ACTIVITY (%)” value was 46%.

Turning to `CC1(C)NC(=O)N(c2ccc([N+](=O)[O-])c(C(F)(F)F)c2)C1=O`, the “NORMALIZED SGLT1 ACTIVITY (%)” value is 222%.

For `NC1(C(=O)O)CCCC1`, the “NORMALIZED SGLT1 ACTIVITY (%)” value is 114%.

Take `COP(=S)(OC)Oc1ccc(SC)c(C)c1`: the “NORMALIZED SGLT1 ACTIVITY (%)” value was 87%.

Turning to `CC(=O)O[C@@H]1CC[C@]2(C)C3CC[C@]4(C)C(=O)CCC4C3CC[C@H]2C1` (some centres unmarked), the “NORMALIZED SGLT1 ACTIVITY (%)” value was 69%.

As for `CCN(CC)CCOC(=O)C(c1ccccc1)c1ccccc1.Cl`, the “NORMALIZED SGLT1 ACTIVITY (%)” value is 69%.

Consider `O=C1C(CCS(=O)c2ccccc2)C(=O)N(c2ccccc2)N1c1ccccc1` (centres unmarked), for which the “NORMALIZED SGLT1 ACTIVITY (%)” value was determined as 118%.

In the case of `CC1CC[C@@]2(OC1)O[C@H]1CC3C4CC[C@@H]5C[C@@H](O)CC[C@]5(C)C4CC[C@]3(C)[C@H]1[C@@H]2C` (some centres unmarked), the “NORMALIZED SGLT1 ACTIVITY (%)” value came to 68%.

For `COc1cc(O)c(C(=O)/C=C/c2ccccc2)c(OC)c1`, the “NORMALIZED SGLT1 ACTIVITY (%)” value is given as 178%.

As for `O=C(/C=C/C=C/c1ccc2c(c1)OCO2)N1CCCCC1`, the “NORMALIZED SGLT1 ACTIVITY (%)” value came to 87%.

As for `COC1=C(O)C(=O)c2c(cc3oc(C(C)=O)c(O)c3c2O)C1=O`, the “NORMALIZED SGLT1 ACTIVITY (%)” value is on record as 105%.

With `COc1ccc(-c2oc3cc(O[C@@H]4O[C@H](CO)[C@@H](O)[C@H](O)[C@H]4O)c(OC)c(O)c3c(=O)c2OC)cc1O`, the “NORMALIZED SGLT1 ACTIVITY (%)” value turned out to be 105%.

For the compound `CC(=O)O[C@H]1CC[C@@]2(C)C(=CCC3C2CC[C@]2(C)C(=O)CCC32)C1` (some centres unmarked), the “NORMALIZED SGLT1 ACTIVITY (%)” value stood at 123%.

Take `O=C1C=CC(=C(c2ccc(O)cc2)c2ccc(O)cc2)C=C1`: the “NORMALIZED SGLT1 ACTIVITY (%)” value was determined as 78%.

As to `COc1cc(OC)c(OC)cc1C=O`, the “NORMALIZED SGLT1 ACTIVITY (%)” value was 189%.

For the compound `N=C(N)NC(=O)c1nc(Cl)c(N2CCCCCC2)nc1N`, the “NORMALIZED SGLT1 ACTIVITY (%)” value turned out to be 213%.

Take `COS(C)(=O)=O`: the “NORMALIZED SGLT1 ACTIVITY (%)” value came to 151%.

For the compound `O=C(O)c1cc(/N=N/c2ccc(S(=O)(=O)Nc3ccccn3)cc2)ccc1O`, the “NORMALIZED SGLT1 ACTIVITY (%)” value worked out at 102%.

Regarding `CSc1nc(NC(C)C)nc(NC(C)C)n1`, the “NORMALIZED SGLT1 ACTIVITY (%)” value was 120%.

`C[C@@H]1C[C@H]2[C@@H]3CCC4=CC(=O)C=C[C@]4(C)[C@@]3(Cl)[C@@H](O)C[C@]2(C)[C@@]1(OC(=O)c1ccco1)C(=O)CCl`: the “NORMALIZED SGLT1 ACTIVITY (%)” value was found to be 121%.

As to `CCOC(=O)[C@H](CCc1ccccc1)N[C@@H](C)C(=O)N1CCC[C@H]1C(=O)O.O=C(O)/C=C\C(=O)O`, the “NORMALIZED SGLT1 ACTIVITY (%)” value was 93%.

As for `CC[C@@H](CO)NC(=O)[C@@H]1C=C2c3cccc4[nH]cc(c34)C[C@H]2N(C)C1.O=C(O)/C=C\C(=O)O`, the “NORMALIZED SGLT1 ACTIVITY (%)” value is given as 113%.

For the compound `CCCc1cc(=O)[nH]c(=S)[nH]1`, the “NORMALIZED SGLT1 ACTIVITY (%)” value came out at 182%.

For `NC[C@H]1O[C@H](O[C@H]2C(O[C@@H]3O[C@H](CO)[C@@H](O)[C@H]3O)[C@@H](O)[C@H](N)C[C@@H]2N)[C@H](N)[C@@H](O)[C@@H]1O.O=S(=O)(O)O` (some centres unmarked), the “NORMALIZED SGLT1 ACTIVITY (%)” value is on record as 120%.

On to `CC(=O)Oc1c(C)c(C)c2c(c1C)CCC(C)(CCCC(C)CCCC(C)CCCC(C)C)O2` (centres unmarked), for which the “NORMALIZED SGLT1 ACTIVITY (%)” value is 119%.

Consider `COC(=O)c1c(C)cc(OC)cc1O`, for which the “NORMALIZED SGLT1 ACTIVITY (%)” value is recorded as 130%.

Take `CC1(C)O[C@@H]2CC3C4C[C@H](F)C5=CC(=O)C=CC5(C)C4C(O)CC3(C)[C@]2(C(=O)CO)O1` (some centres unmarked): the “NORMALIZED SGLT1 ACTIVITY (%)” value came out at 167%.

`CC(C)CCCC(C)[C@H]1CCC2C3C(=O)C=C4C[C@@H](O)CC[C@]4(C)C3CC[C@@]21C` (some centres unmarked): the “NORMALIZED SGLT1 ACTIVITY (%)” value is given as 95%.

Regarding `COC1(C)CCC2OC2(C)CCC2C1CC2(C)C` (centres unmarked), the “NORMALIZED SGLT1 ACTIVITY (%)” value was determined as 80%.

Turning to `OC[C@@H]1CCCN2CCCC[C@H]12`, the “NORMALIZED SGLT1 ACTIVITY (%)” value is listed as 78%.

For `C1N2CN3CN1CN(C2)C3`, the “NORMALIZED SGLT1 ACTIVITY (%)” value stood at 106%.

Take `CCN(CC)CCCC(C)Nc1ccnc2cc(Cl)ccc12.O=P(O)(O)O.O=P(O)(O)O` (centres unmarked): the “NORMALIZED SGLT1 ACTIVITY (%)” value amounted to 116%.

Consider `O=C1CC[C@]23/C=C/C(=O)NCCCCNCCCNC(=O)/C=C/c4ccc(c2c4)O[C@@H]3C1`, for which the “NORMALIZED SGLT1 ACTIVITY (%)” value is reported as 114%.

`COC(=O)[C@H]1[C@H]2C[C@H]3c4[nH]c5ccccc5c4CCN3C[C@H]2CC[C@@H]1O.Cl`: the “NORMALIZED SGLT1 ACTIVITY (%)” value came out at 110%.

On to `C1CCc2nnnn2CC1`, for which the “NORMALIZED SGLT1 ACTIVITY (%)” value came to 142%.

With `CCN(CC)C(=O)N1CCN(C)CC1.O=C(O)CC(O)(CC(=O)O)C(=O)O`, the “NORMALIZED SGLT1 ACTIVITY (%)” value stood at 96%.

Take `COC(=O)C[C@H]1C(C)(C)[C@@H](OC(C)=O)[C@@H]2CC3=C4CC(=O)O[C@@H](c5ccoc5)[C@]4(C)CCC3[C@@]1(C)C2=O` (some centres unmarked): the “NORMALIZED SGLT1 ACTIVITY (%)” value stood at 118%.

Regarding `Oc1cccc(O)c1`, the “NORMALIZED SGLT1 ACTIVITY (%)” value was determined as 92%.

With `Cc1cc(O)cc(C)c1Cl`, the “NORMALIZED SGLT1 ACTIVITY (%)” value turned out to be 597%.

As to `Cl.Nc1c2c(nc3ccccc13)CCCC2`, the “NORMALIZED SGLT1 ACTIVITY (%)” value was 127%.
